# Assay results: the supplement of paper PMC8728848
# This is one part of the list.
# B1: BC2L-A (Burkholderia cenocepacia), Q1BKJ8_BURCA (protein)
# chain: ADSQTSSNRAGEFSIPPNTDFRAIFFANAAEQQHIKLFIGDSQEPAAYHKLTTRDGPREATLNSGNGKIRFEVSVNGKPSATDARLAPINGKKSDGSPFTVNFGIVVSEDGHDSDYNDGIVVLQWPIG
# How the values were obtained:
# Experiment in all cases: glycan array binding signal (z-score within array); higher = stronger binding
# Details in all cases: glycan notation: IUPAC condensed, linker removed
# [1] = target: Neu5Ac(a2-3)Gal(b1-3)GlcNAc(b1-3)Gal(b1-3)GlcNAc
# How it was run: (§1)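 The Consortium for Functional Glycomics database supplied 3228 glycan arrays, of which those lacking an available protein sequence were dropped. The binding signal, a within-array Z-score, was averaged across arrays of the same protein sequence and across linkers. Negative scores can be read as non-binding.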
# [2] = target: Neu5Ac(a2-3)Gal(b1-3)GlcNAc(b1-3)Gal(b1-4)GlcNAc
# How it was run: as §1
# [3] = target: Neu5Ac(a2-3)Gal(b1-3)GlcNAc(b1-3)GalNAc
# How it was run: as §1
# [4] = target: Neu5Ac(a2-3)Gal(b1-3)GlcNAc6S
# How it was run: as §1
# [5] = target: Neu5Ac(a2-3)Gal(b1-3)[Fuc(a1-4)]GlcNAc
# How it was run: as §1
# [6] = target: Neu5Ac(a2-3)Gal(b1-3)[Fuc(a1-4)]GlcNAc(b1-3)Gal(b1-3)[Fuc(a1-4)]GlcNAc
# How it was run: as §1
# [7] = target: Neu5Ac(a2-3)Gal(b1-3)[Fuc(a1-4)]GlcNAc(b1-3)Gal(b1-4)[Fuc(a1-3)]GlcNAc
# How it was run: as §1
# [8] = target: Neu5Ac(a2-3)Gal(b1-3)[Neu5Ac(a2-3)Gal(b1-4)]GlcNAc
# How it was run: as §1
# [9] = target: Neu5Ac(a2-3)Gal(b1-3)[Neu5Ac(a2-6)]GalNAc
# How it was run: as §1
# [10] = target: Neu5Ac(a2-3)Gal(b1-4)Glc
# How it was run: as §1
# [11] = target: Neu5Ac(a2-3)Gal(b1-4)GlcNAc
# How it was run: as §1
# [12] = target: Neu5Ac(a2-3)Gal(b1-4)GlcNAc(b1-2)Man(a1-3)[GlcNAc(b1-2)Man(b1-4)GlcNAc(b1-2)Man(a1-6)]Man(b1-4)GlcNAc(b1-4)GlcNAc
# How it was run: as §1
# [13] = target: Neu5Ac(a2-3)Gal(b1-4)GlcNAc(b1-2)Man(a1-3)[Neu5Ac(a2-3)Gal(b1-4)GlcNAc(b1-2)Man(a1-6)]Man(b1-4)GlcNAc(b1-4)GlcNAc
# How it was run: as §1
# [14] = target: Neu5Ac(a2-3)Gal(b1-4)GlcNAc(b1-2)Man(a1-3)[Neu5Ac(a2-6)Gal(b1-4)GlcNAc(b1-2)Man(a1-6)]Man(b1-4)GlcNAc(b1-4)GlcNAc
# How it was run: as §1
# [15] = target: Neu5Ac(a2-3)Gal(b1-4)GlcNAc(b1-3)Gal
# How it was run: as §1
# [16] = target: Neu5Ac(a2-3)Gal(b1-4)GlcNAc(b1-3)Gal(b1-3)GlcNAc
# How it was run: as §1
# [17] = target: Neu5Ac(a2-3)Gal(b1-4)GlcNAc(b1-3)Gal(b1-4)GlcNAc
# How it was run: as §1
# [18] = target: Neu5Ac(a2-3)Gal(b1-4)GlcNAc(b1-3)Gal(b1-4)GlcNAc(b1-3)Gal(b1-4)GlcNAc
# How it was run: as §1
# [19] = target: Neu5Ac(a2-3)Gal(b1-4)GlcNAc(b1-3)Gal(b1-4)[Fuc(a1-3)]GlcNAc
# How it was run: as §1
# [20] = target: Neu5Ac(a2-3)Gal(b1-4)GlcNAc(b1-3)GalNAc
# How it was run: as §1
# [21] = target: Neu5Ac(a2-3)Gal(b1-4)GlcNAc(b1-6)[Gal(b1-3)]GalNAc
# How it was run: as §1
# [22] = target: Neu5Ac(a2-3)Gal(b1-4)GlcNAc(b1-6)[Neu5Ac(a2-3)Gal(b1-3)]GalNAc
# How it was run: as §1
# [23] = target: Neu5Ac(a2-3)Gal(b1-4)GlcNAc6S
# How it was run: as §1
# [24] = target: Neu5Ac(a2-3)Gal(b1-4)[Fuc(a1-3)]GlcNAc
# How it was run: as §1
# [25] = target: Neu5Ac(a2-3)Gal(b1-4)[Fuc(a1-3)]GlcNAc(b1-3)Gal
# How it was run: as §1
# [26] = target: Neu5Ac(a2-3)Gal(b1-4)[Fuc(a1-3)]GlcNAc(b1-3)Gal(b1-4)GlcNAc
# How it was run: as §1
# [27] = target: Neu5Ac(a2-3)Gal(b1-4)[Fuc(a1-3)]GlcNAc(b1-3)Gal(b1-4)[Fuc(a1-3)]GlcNAc(b1-3)Gal(b1-4)[Fuc(a1-3)]GlcNAc
# How it was run: as §1
# [28] = target: Neu5Ac(a2-3)Gal(b1-4)[Fuc(a1-3)]GlcNAc(b1-3)GalNAc
# How it was run: as §1
# [29] = target: Neu5Ac(a2-3)Gal(b1-4)[Fuc(a1-3)]GlcNAc(b1-6)[Gal(b1-3)]GalNAc
# How it was run: as §1
# [30] = target: Neu5Ac(a2-3)Gal(b1-4)[Fuc(a1-3)]GlcNAc(b1-6)[Neu5Ac(a2-3)Gal(b1-3)]GalNAc
# How it was run: as §1
# [31] = target: Neu5Ac(a2-3)Gal(b1-4)[Fuc(a1-3)]GlcNAc6S
# How it was run: as §1
# [32] = target: Neu5Ac(a2-3)Gal6S(b1-4)GlcNAc
# How it was run: as §1
# [33] = target: Neu5Ac(a2-3)Gal6S(b1-4)[Fuc(a1-3)]GlcNAc
# How it was run: as §1
# [34] = target: Neu5Ac(a2-3)GalNAc
# How it was run: as §1
# [35] = target: Neu5Ac(a2-3)GalNAc(b1-4)GlcNAc
# How it was run: as §1
# [36] = target: Neu5Ac(a2-3)[GalNAc(b1-4)]Gal(b1-4)Glc
# How it was run: as §1
# [37] = target: Neu5Ac(a2-3)[GalNAc(b1-4)]Gal(b1-4)GlcNAc
# How it was run: as §1
# [38] = target: Neu5Ac(a2-3)[GalNAc(b1-4)]Gal(b1-4)GlcNAc(b1-3)GalNAc
# How it was run: as §1
# [39] = target: Neu5Ac(a2-3)[Neu5Ac(a2-6)]GalNAc
# How it was run: as §1
# [40] = target: Neu5Ac(a2-6)Gal
# How it was run: as §1
# [41] = target: Neu5Ac(a2-6)Gal(b1-3)GlcNAc(b1-3)[Gal(b1-4)GlcNAc(b1-6)]Gal(b1-4)Glc
# How it was run: as §1
# [42] = target: Neu5Ac(a2-6)Gal(b1-4)Glc
# How it was run: as §1
# [43] = target: Neu5Ac(a2-6)Gal(b1-4)GlcNAc
# How it was run: as §1
binder,measurement,setting,value
B1,glycan array binding signal (z-score),[1],-0.272
same,glycan array binding signal (z-score),[2],-0.218
same,glycan array binding signal (z-score),[3],-0.218
same,glycan array binding signal (z-score),[4],0.08
same,glycan array binding signal (z-score),[5],0.034
same,glycan array binding signal (z-score),[6],0.536
same,glycan array binding signal (z-score),[7],0.563
same,glycan array binding signal (z-score),[8],-0.246
same,glycan array binding signal (z-score),[9],-0.083
same,glycan array binding signal (z-score),[10],-0.293
same,glycan array binding signal (z-score),[11],-0.289
same,glycan array binding signal (z-score),[12],-0.271
same,glycan array binding signal (z-score),[13],-0.22
same,glycan array binding signal (z-score),[14],-0.296
same,glycan array binding signal (z-score),[15],-0.214
same,glycan array binding signal (z-score),[16],-0.291
same,glycan array binding signal (z-score),[17],-0.289
same,glycan array binding signal (z-score),[18],-0.291
same,glycan array binding signal (z-score),[19],-0.292
same,glycan array binding signal (z-score),[20],-0.296
same,glycan array binding signal (z-score),[21],-0.299
same,glycan array binding signal (z-score),[22],-0.234
same,glycan array binding signal (z-score),[23],-0.295
same,glycan array binding signal (z-score),[24],-0.291
same,glycan array binding signal (z-score),[25],-0.291
same,glycan array binding signal (z-score),[26],-0.255
same,glycan array binding signal (z-score),[27],-0.163
same,glycan array binding signal (z-score),[28],-0.255
same,glycan array binding signal (z-score),[29],-0.294
same,glycan array binding signal (z-score),[30],-0.237
same,glycan array binding signal (z-score),[31],-0.293
same,glycan array binding signal (z-score),[32],-0.272
same,glycan array binding signal (z-score),[33],-0.292
same,glycan array binding signal (z-score),[34],-0.293
same,glycan array binding signal (z-score),[35],-0.288
same,glycan array binding signal (z-score),[36],-0.295
same,glycan array binding signal (z-score),[37],-0.28
same,glycan array binding signal (z-score),[38],-0.218
same,glycan array binding signal (z-score),[39],-0.293
same,glycan array binding signal (z-score),[40],-0.29
same,glycan array binding signal (z-score),[41],-0.219
same,glycan array binding signal (z-score),[42],-0.287
same,glycan array binding signal (z-score),[43],-0.29
